# According to PubChem BioAssay AID903 (National Center for Advancing Translational Sciences (NCATS), 2007):
# Out of some 55,000 compounds screened, about 340 (0.62%) were called active. The shares of active, inactive and inconclusive entries below differ from those in the screen. Calls come from the whole dose curve; as a rule, active = well fitted cell-killing curve with a large enough effect; inconclusive = small, poorly fitted or top-dose-only effect; inactive = no such curve, though single readings can be large or run the other way. Potencies of inconclusive entries are doubtful fits and often do not repeat.
# Assay: qHTS Screen for Compounds that Selectively Target Cancer Cells with p53 Mutations: Cytotoxicity of p53 Null Cells at the Permissive Temperature; note: nearly all actives have a fitted effect of over 55% in size;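 for activity change, negative = cytotoxicity: 0% = DMSO only and -100% = full killing by 100 µM tamoxifen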
# Conditions: H1299-neo p53 null cells, ATP luminescence, 24 h, 32C; series mostly up to 46.1 µM; activity change, negative = cytotoxicity: at the top concentration
# How it was run: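 Cells lacking p53 (H1299-neo) are plated at 600 per well and allowed to settle overnight at 37C. Test compounds (up to 46 uM) are added and held 24 hours at 32C, then ATP is quantified by luminescence.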
# Potency is the fitted concentration of half-maximal effect; tags give direction and shape of the fitted curve.
SMILES,Potency,"activity change, negative = cytotoxicity"
Cc1cc(-c2ccc(C)c(S(=O)(=O)Nc3cccc(C#N)c3)c2)on1,"inconclusive: 25.1 µM [cytotoxic, single point]",–
COC(=O)c1ccc(NC(=O)C2CCCN2S(=O)(=O)c2ccc(F)cc2)cc1 (configuration not stated),–,inactive: 10.9%
Cc1ccc(Cl)cc1N1CCN(C(=O)CCCCCn2c(=O)[nH]c3ccccc3c2=O)CC1,"inconclusive: 31.6 µM [cytotoxic, single point]",–
Cc1cccc(C(=O)Nc2ccc(OCc3cc(=O)n4ccsc4n3)cc2)c1,"inconclusive: 14.1 µM [cytotoxic, partial curve]",–
CCN(c1ccccc1)S(=O)(=O)c1ccc2[nH]cc(C(=O)NCc3ccc(C)cc3)c(=O)c2c1,–,inactive: 0.322%
CC(=O)c1ccc(NC(=O)c2nc3ccccc3n(C)c2=O)cc1,active: 2 µM,–
Cc1cn(S(=O)(=O)c2ccc(F)c(Cl)c2)cn1,"inconclusive: 3.16 µM [cytotoxic, single point]",–
Cc1ccccc1NC(=O)c1c(NC(=O)C(F)(F)F)sc2c1CCCCC2,"inconclusive: 0.398 µM [cytotoxic, single point]",–
O=S(=O)(Nc1cccc(-c2ccc(N3CCOCC3)nn2)c1)c1ccccc1C(F)(F)F,"inconclusive: 0.891 µM [cytotoxic, full curve, poor fit]",–
COc1ccc(C(=O)Nc2nnc(S(=O)(=O)N3CCC(C)CC3)s2)cc1OC,"inconclusive: 10 µM [cytotoxic, partial curve]",–
COc1ccc(NC(=O)Nc2cccc(-c3cn4cccnc4n3)c2)cc1,"inconclusive: 7.94 µM [cytotoxic, partial curve]",–
COc1ccc(C2CC(=O)N(CC(=O)Nc3ccc(C(C)=O)cc3)c3ccccc3S2)cc1OC (configuration not stated),"inconclusive: 15.8 µM [cytotoxic, partial curve]",–
CCOc1ccc(-c2noc(CSc3nnc(Cc4ccccc4)n3-c3ccc(F)cc3)n2)cc1,"inconclusive: 15.8 µM [cytotoxic, single point]",–
CCOCCc1nn2c(=O)cc(COC(=O)c3ccccc3NC(=O)CC(C)C)nc2s1,–,inactive: -10.2%
COc1cc(N=c2c([N+](=O)[O-])nn(-c3ccc4c(c3)OCCO4)n2O)cc(OC)c1,"inconclusive: 20 µM [cytotoxic, partial curve, poor fit]",–
Cc1cccc(N2CCN(c3ncnc4c3cnn4-c3ccc(Cl)cc3)CC2C)c1 (configuration not stated),"inconclusive: 31.6 µM [cytotoxic, single point]",–
O=S(=O)(NCCc1cn2ccsc2n1)c1ccc(Cl)cc1,"inconclusive: 3.98 µM [cytotoxic, single point]",–
OCCCc1nc2n(n1)C(c1cccc(Cl)c1)C=C(c1ccccc1)N2 (configuration not stated),"inconclusive: 0.0316 µM [cytotoxic, full curve]",–
CCOc1ccc(-c2cc(C(=O)NCCc3ccc(Cl)cc3)c3ccccc3n2)cc1,"inconclusive: 20 µM [cytotoxic, partial curve]",–
CCOC(=O)CSc1nc2ccc(NC(=O)COc3ccccc3C)cc2s1,–,inactive: -12%
O=C(CNC(=O)c1ccc(-c2ccccc2)cc1)OCc1ccc(Br)cc1,"inconclusive: 11.2 µM [cytotoxic, partial curve]",–
Cc1c(NC(=O)c2ccc(-c3ccc(F)cc3)o2)cccc1-c1nc2ncccc2o1,"inconclusive: 10 µM [cytotoxic, partial curve]",–
O=C(O)CCSc1nnc(-c2ccc(Cl)cc2Cl)o1,"inconclusive: 11.2 µM [cytotoxic, partial curve]",–

SMILES,Potency,"activity change, negative = cytotoxicity"
O=S1(=O)N=C(Nc2nc3c(s2)CCCC3)c2ccccc21,active: 11.2 µM,–
CCCN(C(=O)Cn1nc(Cc2cccnc2)c2ccccc2c1=O)c1ccc(C(C)C)cc1,"inconclusive: 31.6 µM [cytotoxic, single point]",–
CCOc1ccc(CCNC(c2nnc(-c3ccccc3)o2)c2ccccc2Cl)cc1OCC (configuration not stated),"inconclusive: 25.1 µM [cytotoxic, single point]",–
COc1ccccc1/C=C(\C#N)C(=O)NCC1CCCO1 (configuration not stated),"inconclusive: 0.708 µM [cytotoxic, full curve, poor fit]",–
CCCCN(C)CC(O)Cn1cc(/C=C/C(=O)c2ccc(OCC)cc2)c2ccccc21 (configuration not stated),"inconclusive: 31.6 µM [cytotoxic, single point]",–
O=C(CC(=O)Nc1ccccc1F)Nc1ccc2nc3n(c(=O)c2c1)CCCCC3,"inconclusive: 0.316 µM [cytotoxic, full curve, poor fit]",–
O=C(/C=C/Nc1ccccc1F)c1cccs1,active: 11.2 µM,–
CCCCCNc1nc2c(-c3ccccc3)nnn2c2ccccc12,"inconclusive: 4.47 µM [cytotoxic, single point]",–
COc1ccc(-c2noc(CSc3nnc(C)n3-c3ccc(C)cc3)n2)cc1,–,inactive: -9.09%
Cn1c(=O)c2c(nc(NCc3ccccc3)n2Cc2ccc(Cl)c(Cl)c2)n(C)c1=O,"inconclusive: 31.6 µM [cytotoxic, single point]",–
CC(=O)Nc1ccc(NC(=O)c2nc(SCc3ccccc3C)ncc2Cl)cc1,–,inactive: -9.66%
Cc1ccc(CNC(=O)CN2C(=O)CSc3ccc(S(=O)(=O)N4CCCC4)cc32)cc1,–,inactive: -9.83%
CCc1ccccc1NC(=O)c1cccc(NC(=O)/C=C/c2ccco2)c1,"inconclusive: 11.2 µM [cytotoxic, single point]",–
COC(=O)c1c(-c2cccs2)csc1NC(=O)COc1ccccc1,"inconclusive: 12.6 µM [cytotoxic, single point]",–
COc1ccc(C2C(=O)N(C3CCCCCC3)CC(=O)N2Cc2ccccc2)cc1 (configuration not stated),–,inactive: -0.636%
Fc1ccc(Cc2cn3cc(-c4ccc(F)cc4)nc3s2)cc1,"inconclusive: 6.31 µM [cytotoxic, partial curve]",–
O=S(=O)(Nc1cccc(-c2ccc(N3CCCCC3)nn2)c1)c1ccc(F)cc1F,"inconclusive: 12.6 µM [cytotoxic, partial curve]",–
CCOc1cc(CNCCSc2nnnn2C)cc(Cl)c1OCc1ccc(Cl)cc1,"inconclusive: 31.6 µM [cytotoxic, single point]",–
COc1ccc(-c2cc(C(=O)NCCc3ccccc3)c3c(-c4ccccc4)[nH]nc3n2)cc1,–,inactive: -29.5%
Cc1ccc(/C=C/c2nc3ccccc3n2S(=O)(=O)c2ccc(Br)cc2)cc1,active: 6.31 µM,–
Cc1cc(NC(=O)c2ccco2)cc(-c2nc3cc(Cl)ccc3o2)c1O,"inconclusive: 31.6 µM [cytotoxic, single point]",–
CSc1ccc(/C=C/c2nc3ccccc3n2S(=O)(=O)c2ccc(F)c(C)c2)cc1,active: 7.94 µM,–
O=C1C(c2ccnc3ccccc23)=C(O)c2ccccc21,"inconclusive: 0.708 µM [cytotoxic, full curve]",–

SMILES,Potency,"activity change, negative = cytotoxicity"
CCCC1=Nc2cc(C(=O)N3CCC(C)CC3)ccc2Sc2ccc(C)cc21,–,inactive: 7.09%
COc1cc(Cl)c(C)cc1NC(=O)c1cnc(N2CCOCC2)c2ccccc12,"inconclusive: 4.47 µM [cytotoxic, single point]",–
COc1ccc(C(=O)NC(c2ccc(Cl)cc2)c2cc(Cl)c3cccnc3c2O)cc1 (configuration not stated),"inconclusive: 1.26 µM [cytotoxic, full curve, poor fit]",–
Cc1ccc(NC(=O)C2CCN(c3nnc(C)c4c(C)n(-c5ccccc5)nc34)CC2)cc1Cl,–,inactive: -3.63%
CCOc1ccc(-c2oc3cc(Cl)ccc3c(=O)c2O)cc1OC,"inconclusive: 20 µM [cytotoxic, single point]",–
Cc1nc2c3ccccc3nc(NNC(=O)CCC(=O)N3CCN(c4cccc(C(F)(F)F)c4)CC3)n2n1,–,inactive: -3.77%
O=C(O)c1ccc(NC(=O)c2cc3ccccc3o2)cc1,active: 12.6 µM,–
COc1ccc(/C=N/NC(=O)CNC(=O)c2cccs2)cc1,"inconclusive: 14.1 µM [cytotoxic, single point]",–
CC(=O)c1ccc(NC(=O)CCc2c(C)nn(-c3ccc(N4CCCCC4)nn3)c2C)cc1,"inconclusive: 12.6 µM [cytotoxic, partial curve]",–
O=S(=O)(Nc1cccc(-c2ccc(N3CCCC3)nn2)c1)c1ccc(F)c(C(F)(F)F)c1,–,inactive: 7.87%
Cc1cccc(Oc2ccc3c(c2)Oc2ccccc2NC3=O)c1,"inconclusive: 20 µM [cytotoxic, single point]",–
COc1cc(Cl)c(NC(=O)CN(C)S(=O)(=O)c2ccc3c(c2)CCCC(=O)N3)c(OC)c1,–,inactive: -10.1%
COc1ccc(-c2cn3c(n2)sc2cc(C(=O)Nc4ccc(F)cc4Cl)ccc23)cc1,"inconclusive: 0.447 µM [cytotoxic, full curve, poor fit]",–
C=Cc1ccc(Cn2c(C(=O)O)c(CNCc3ccccc3)c3ccc(OC)cc32)cc1,–,inactive: -7.31%
O=C(Nc1ccc2nc3ccccc3nc2c1)c1ccccc1,"inconclusive: 5.62 µM [cytotoxic, full curve]",–
CN(Cc1ccccc1)C(=O)c1cccc(NC(=O)c2nsc3ccccc23)c1,"inconclusive: 12.6 µM [cytotoxic, partial curve]",–
COc1ccc(OCC2c3cc(OC)c(OC)cc3CCN2C(=O)COc2ccc(Cl)cc2Cl)cc1 (configuration not stated),–,inactive: -0.822%
COc1ccc(C(=O)COC(=O)C(CC(C)C)N2C(=O)c3ccccc3C2=O)cc1 (configuration not stated),"inconclusive: 11.2 µM [cytotoxic, partial curve]",–
Cc1ccc(Nc2ncnc3c2nc2n3CCCC2)c(Br)c1,"inconclusive: 11.2 µM [cytotoxic, partial curve]",–
COC(=O)/C(N=Nc1c(C)n(C)n(-c2ccccc2)c1=O)=C(\C)O,–,inactive: -0.414%
COc1cccc(CNc2nc3c(-c4cccc(C)c4)nnn3c3ccccc23)c1,"inconclusive: 4.47 µM [cytotoxic, single point]",–
